Read counts are not given, so values of variants with three or more changes are uncertain.

B1: LINE1-mini (parent)
chain: GGCAGAGCUCAACACAGCGUGGCAAAGUGGCUGUGGCUAGACUGCC

The data set covers variants of B1. The experiment in a line: self-cleavage, relative activity (ratio to wild type); higher = more cleavage; in vitro, sequencing; the parent is a self-cleaving ribozyme.
For GGCAGAGCUCAACACAGCGUAGAAAAGUGGUUGUGGCUAGACUGCC, the self-cleavage is 0.19.

Take GGCAGAGCUCAACACAGCGGGGCAAAGCGGCUGUUGCUAGACUGCG: the self-cleavage is 0.26.

For GGCAGAGCUCAACACAGCGUAGCAAGGUGGCUGUAGCUAGACUGCC, the self-cleavage is 0.04.

On to GGCAGAGCUCAACACAGCGGGGCAAAGUGUCUGUGGCUAUACUGCC, for which the self-cleavage stood at 0.01.

As to GGCAGAGCUCAACACAGCGGGGCAAAGUGUCUGUGGCUAAACUGCC, the self-cleavage stood at 0.04.

On to GGCAGAGCUCAACACAGCGUAGCAUAGUGGCUGUGGCUAUUCUGCC, for which the self-cleavage was 1.51.

GGCAGAGCUCAACACAGCGUAGUAACGUGGCUGAGGCAAGACUGCC: the self-cleavage came to 0.03.

Turning to GGCAGAGCUCAACACAGCGGGGCAAAGUCGCUGUGGCUAGUCUGCC, the self-cleavage was 0.14.

Consider GGCAGAGCUCAACACAGCGUAGCAGAAUGGCGGUGGCUGGACUGCC, for which the self-cleavage was 0.1.

On to GGCAGAGCUCAACACAGCGUAUCAAAGUGGCUGUGGCGAGGCUGCC, for which the self-cleavage is 0.03.

With GGCAGAGCUCAACACAGCGUAGUAAAGUGUCUGUGGCUCGACUGCC, the self-cleavage turned out to be 0.38.

For the variant GGCAGAGCUCAACACAGCGGGGCAAAGUGGCUGUCGUUAGACUGCC, the self-cleavage amounted to 0.02.

As for GGCAGAGCUCAACACAGCGUAGCAAAGUGGCUGUGGCUUGACUUCC, the self-cleavage worked out at 0.61.

Consider GGCAGAGCUCAACACAGCGGGUCAAAGUGGUUGUGGCUAGACUGCC, for which the self-cleavage stood at 0.13.

As to GGCAGAGCUCAACACAGCGGGGCAAAGCGGCGGUGGCUAGACUGAC, the self-cleavage was 0.03.

Take GGCAGAGCUCAACACAGCGGGGCAAAGUGGCUGUAGCGAGACGGCC: the self-cleavage turned out to be 0.01.

With GGCAGAGCUCAACACAGCGGGUCAAAGUGGCUGUUGCUGGACUGCC, the self-cleavage is 0.03.

For the variant GGCAGAGCUCAACACAGCGGGGCAAAGUAGCUGAGGCUAGAGUGCC, the self-cleavage was 0.09.

With GGCAGAGCUCAACACAGCGGGGCAAAGUGCCUCUGGCUAGACUACC, the self-cleavage is 0.02.

For GGCAGAGCUCAACACAGCGUAGCAAUAUGGCGCUGGCUAGACUGCC, the self-cleavage worked out at 0.05.

Take GGCAGAGCUCAACACAGCGGGGCAAAGUGGCUGUAGCUAAACUACC: the self-cleavage was determined as 0.12.

As for GGCAGAGCUCAACACAGCGUAUCAAAGUGUCUGUGGCUAAACUGCC, the self-cleavage stood at 0.07.

As for GGCAGAGCUCAACACAGCGUAGCAACGUAGCUUUGGCUAGACUGAA, the self-cleavage stood at 0.06.

As for GGCAGAGCUCAACACAGCGUAGCCAAGUGACAGUGCCUAGACUGCC, the self-cleavage was 0.04.

On to GGCAGAGCUCAACACAGCGGGUCAAAGUGGCUGUGGCCAGACUGCC, for which the self-cleavage amounted to 0.2.

Turning to GGCAGAGCUCAACACAGCGGGGCAAAGUGGCGGUUGCUAGACUGAC, the self-cleavage was found to be 0.2.

For the variant GGCAGAGCUCAACACAGCGUAUCAAAGUGGUUGUGGCUAGACUGCC, the self-cleavage amounted to 0.17.

Regarding GGCAGAGCUCAACACAGCGGGGCAAAGUGGCUUUGGCUAGAUUGCC, the self-cleavage worked out at 0.07.

With GGCAGAGCUCAACACAGCGUAGCAAAUUGACUCUGGCUAGACUUCC, the self-cleavage stood at 0.02.

With GGCAGAGCUCAACACAGCGUAGCAAAUUGGCUGUGGCGAGACUGCC, the self-cleavage was found to be 0.03.

For GGCAGAGCUCAACACAGCGUAGCAAAUUGGCAGUGACUAGACUGCC, the self-cleavage worked out at 0.05.

Take GGCAGAGCUCAACACAGCGGUGCAAAGUGGCUGUGGCUACACUGCC: the self-cleavage was determined as 0.19.

On to GGCAGAGCUCAACACAGCGUAGCAAAGUGGCUGUGGAUUGACUGCC, for which the self-cleavage was determined as 0.16.

Consider GGCAGAGCUCAACACAGCGUAGCAAGGUGGCUAUGGCUAAACUGCC, for which the self-cleavage was 0.02.

GGCAGAGCUCAACACAGCGUAGAAAAUUGGCUGUGGGUAGACUGCC: the self-cleavage is 0.02.

For GGCAGAGCUCAACACAGCGUAGCAGAGUCGCUGUGGCUAGAUUGCC, the self-cleavage came out at 0.15.

GGCAGAGCUCAACACAGCGGGGCAAAGUGGCUGUUGCUAUACAGCC: the self-cleavage was determined as 0.

On to GGCAGAGCUCAACACAGCGGGGCAAAGUGGCUUUGGCUAGACAGCC, for which the self-cleavage was determined as 0.02.

For the variant GGCAGAGCUCAACACAGCGGGACGAAGUGGCUGUCGUUAGACUGCC, the self-cleavage came out at 0.05.

With GGCAGAGCUCAACACAGCGUAGCGAAGUGGCUGUUCCUGGACUGGC, the self-cleavage amounted to 0.05.

On to GGCAGAGCUCAACACAGCGGGGCAAAAUGGCUGUGGCUAGCCUGCC, for which the self-cleavage came to 0.04.

On to GGCAGAGCUCAACACAGCGGGGCAAAGUGGCUGCGGCUAGACUGUC, for which the self-cleavage is 0.14.

Turning to GGCAGAGCUCAACACAGCGGGGCAAAGUCGCUGUUGCUAGAUUGUC, the self-cleavage was determined as 0.

For GGCAGAGCUCAACACAGCGGGGCAAAGUGGCUGUGGCUAUACUGCA, the self-cleavage was determined as 0.06.

As to GGCAGAGCUCAACACAGCGUAGCAAAUUGGCUGUGGCUAGAGUGCC, the self-cleavage worked out at 0.07.

GGCAGAGCUCAACACAGCGGGGCAAAGUGGCUUUGGCUAGUCAGCC: the self-cleavage was 0.02.

On to GGCAGAGCUCAACACAGCGGGGCAAAGAGGCUGCGGCUAGACUGCC, for which the self-cleavage turned out to be 0.16.

Consider GGCAGAGCUCAACACAGCGUAGCAAGGUGGCCAUGGCUAGACUGCC, for which the self-cleavage worked out at 0.02.

With GGCAGAGCUCAACACAGCGUAGCAAAAUGGCUGUGGCUAGACUGCG, the self-cleavage came out at 0.96.

As to GGCAGAGCUCAACACAGCGUAGCAAAGUGGCUGUGGCUAGCCAGCC, the self-cleavage worked out at 0.08.

With GGCAGAGCUCAACACAGCGUAGCUAAGUGGCUGUGGAUAGACUGCC, the self-cleavage was 0.09.

GGCAGAGCUCAACACAGCGGUGAAAAGUGGCUGUGGCUAAACUGCC: the self-cleavage came to 0.17.

Turning to GGCAGAGCUCAACACAGCGUAACAAAUUGGCUGUGGCUAGACUGCC, the self-cleavage was 0.62.

Take GGCAGAGCUCAACACAGCGGUGCAAAGUGGCUGUGUCUAGACUGCC: the self-cleavage came to 0.01.

In the case of GGCAGAGCUCAACACAGCGGGGCAAAGUGGCUGUGGCAAGAUUGCC, the self-cleavage came to 0.31.

GGCAGAGCUCAACACAGCGGGGCAAAGUGGCUGUUGCUAAACUGCC: the self-cleavage was 0.01.

These data come from the RNAGym collection of RNA variant scans (doi:10.7554/elife.90254).
